The text below walks through data of PubChem BioAssay AID488969 (Vanderbilt High Throughput Screening Facility, 2010).

Whole data set: some 110,000 compounds, median “z-score” near -0.1, cut for the highest 2% near 2. Some of the results follow. Calls of active or inactive are those of the source.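 How the source made its calls: active means z-score in the third read window above 3 or below -3; inactive means the rest.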

This assay concerns the target Metabotropic glutamate receptor 8 (Rattus norvegicus) (UniProt P70579). Briefly: rat mGluR8 modulators via GIRK flux, primary screen, cell-based, thallium flux, HTS (AID 488969). To be noted: HEK293 rat mGluR8, GIRK (G protein-gated inwardly rectifying potassium channel) thallium flux, FluoZin2; at 10 µM; stronger effect = higher value; submaximal glutamate (EC20) added with thallium.
UniProt P70579, sequence (P70579 whole entry, looked up): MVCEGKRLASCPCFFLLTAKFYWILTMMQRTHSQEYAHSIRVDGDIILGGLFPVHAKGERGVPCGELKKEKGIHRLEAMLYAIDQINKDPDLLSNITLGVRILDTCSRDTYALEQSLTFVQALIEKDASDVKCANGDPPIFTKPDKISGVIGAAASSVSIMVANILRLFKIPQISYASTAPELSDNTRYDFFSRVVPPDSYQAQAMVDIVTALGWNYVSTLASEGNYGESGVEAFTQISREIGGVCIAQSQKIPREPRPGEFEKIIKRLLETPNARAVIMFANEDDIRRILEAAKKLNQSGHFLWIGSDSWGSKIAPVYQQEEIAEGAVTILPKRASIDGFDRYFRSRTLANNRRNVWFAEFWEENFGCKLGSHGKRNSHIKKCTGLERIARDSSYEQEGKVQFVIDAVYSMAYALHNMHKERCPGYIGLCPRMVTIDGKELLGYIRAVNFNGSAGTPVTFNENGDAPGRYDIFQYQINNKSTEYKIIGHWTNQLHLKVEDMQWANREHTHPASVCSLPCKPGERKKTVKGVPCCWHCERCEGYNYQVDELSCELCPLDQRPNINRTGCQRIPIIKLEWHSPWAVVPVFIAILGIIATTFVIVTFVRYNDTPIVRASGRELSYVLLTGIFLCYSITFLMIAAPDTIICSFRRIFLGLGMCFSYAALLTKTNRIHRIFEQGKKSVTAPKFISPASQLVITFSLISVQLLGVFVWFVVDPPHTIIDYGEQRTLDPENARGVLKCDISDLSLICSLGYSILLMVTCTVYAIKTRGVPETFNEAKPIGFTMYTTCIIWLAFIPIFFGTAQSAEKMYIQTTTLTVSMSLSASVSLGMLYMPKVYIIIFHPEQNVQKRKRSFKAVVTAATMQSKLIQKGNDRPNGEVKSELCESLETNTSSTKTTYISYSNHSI
In turn, `Cc1ccc(-c2c(C(=O)N3CCOCC3)oc(=O)c3ccccc23)cc1` gave a z-score of -0.469.
Under `CCOC(=O)CN1C(=O)C(=O)c2cc(C)ccc21` stands 1.48; under `CS(=O)(=O)N1CCC(C(=O)NCC2CCCO2)CC1` (stereo unspecified), 0.122; under `CCn1c(=O)n(CCOC)c(=O)c2c3c(sc21)CCCC3`, -0.826.
In turn, `CSc1nc(SCC(=O)NC(c2ccccc2)c2ccccc2)c2c3c(sc2n1)CN(C)CC3` came in with a z-score of -0.192.
Under `O=C1c2ccccc2C(=O)N1CCCOc1ccccc1` stands -1.34; under `O=C(CN1CCC(C(O)(c2ccccc2)c2ccccc2)CC1)Nc1ccccc1`, 0.347.
With `CCCC(=O)NC(=S)Nc1ccc(NC(=O)C(C)C)c(OC)c1`, the z-score was determined as 0.343.
The same measure for `Cc1cccc(C(=O)N/N=C/c2ccc3c(c2)OCO3)n1`: -0.0578; for `CN1C(=O)CC(NNC(=O)c2ccc(Cl)cc2)C1=O` (stereo unspecified): -0.0158; for `C=CCSc1nc(N(CC)CC)c2sccc2n1`: -2.12.
`CN(Cc1ccccc1)c1nc2c(c(=O)[nH]c(=O)n2C)n1Cc1ccccc1Cl` came in with a z-score of 0.126.
The same measure for `N#CCCn1cc(C=C(C#N)C#N)c(-c2ccc(-c3ccccc3)cc2)n1`: -0.227.
Under `CCOc1ccc(NC(=O)CN(C)S(=O)(=O)c2cccs2)cc1` stands -0.559.
Under `COC(=O)C1Sc2[nH]c(=O)sc2C2c3ccccc3OC(=O)C12` (stereo unspecified) stands -0.877.
For `COC(=O)CCSc1cc(NCCOC(C)=O)c([N+](=O)[O-])c2nonc12`, the z-score was -0.0935.
`Cc1ccc(-c2ccc(=O)n(CC(=O)NCc3ccco3)n2)cc1` yielded a z-score of -0.117.
Under `Cc1ccc(N(C(C)C(=O)Nc2ccc(S(=O)(=O)N3CCOCC3)cc2)S(C)(=O)=O)cc1` (stereo unspecified) stands 0.137; under `Cc1ccc(CNC(=O)COC(=O)c2c(C)noc2C)cc1`, 0.134.
Under `CC(=O)Oc1cccc(N2C(=O)CC(Nc3ccc(N4CCOCC4)cc3)C2=O)c1` (stereo unspecified) stands -0.44; under `CCOC(=O)c1sc(NC(=O)CSc2nc3c(cc2C#N)CCC3)c(C#N)c1C`, -0.132.
Under `Cc1onc(-c2ccccc2Cl)c1C(=O)Nc1nnc(-c2ccc(Cl)cc2Cl)s1` stands -0.0464.
In turn, `Cc1c(F)cccc1NC(=O)CCC(=O)O` displayed a z-score of 0.0375.
Under `Cc1ccccc1Cn1c(C(=O)OC(C)C)cc2c1ccn2C` stands 0.526; under `CCN(CC)S(=O)(=O)c1cccc(-c2nnc(SC(C)C(N)=O)n2CCc2ccccc2)c1` (stereo unspecified), -0.152; under `CCN(CC)c1ncnc2sc3c(c12)CCC3`, -1.8.
The compound `CCOCc1cnc(C)nc1NCC(=O)c1c(C)[nH]c2ccc(OC)cc12` showed a z-score of 0.113.
The same measure for `CCCn1c2ccccc2c2nnc(SC(CC)C(=O)Nc3cc(C)on3)nc21` (stereo unspecified): 1.42; for `Cc1ccc2cc(-c3noc(C(C)(C)C)n3)c(=O)[nH]c2c1`: -1.58; for `C=CCNC(=O)c1cc2nc(C3CC3)cc(C(F)F)n2n1`: -0.112.
In the case of `O=C(CN1CCOCC1)Nc1nc2ccc(F)cc2s1`, the z-score is -0.00921.
`Cc1ccc(S(=O)(=O)CC(=O)c2ccccc2)cc1` showed a z-score of -0.00758.
The same measure for `N/C(Cc1ccc(Cl)cc1Cl)=N\OC(=O)Cc1cccs1`: -0.0476.
The same measure for `CCS(=O)(=O)N1CCC(C(=O)NCCCN2CCCCCC2)CC1`: -0.116; for `Cc1csc(N(C(=O)c2cccc(S(=O)(=O)N3CCCC3)c2)c2ccccc2)n1`: -0.475.
The same measure for `CCOC(=O)C1C(=O)C=C(N2CCOCC2)CC1c1cccc(OC)c1` (stereo unspecified): 0.312; for `CN(C)C(=O)Cn1c(SCC(=O)NC2CCCCC2)nc2ccccc21`: 0.226; for `O=C(Cc1ccccc1)N1CCN=C1SCc1ccc([N+](=O)[O-])cc1`: -0.0675.
`O=S(=O)(NCC1COc2ccccc2O1)c1ccc2ccccc2c1` (stereo unspecified) displayed a z-score of -0.0854.
The same measure for `O=C(COC(=O)CCCc1nc2ccccc2s1)Nc1ncc(Cl)cc1Cl`: -1.07; for `CCOc1ccc(S(=O)(=O)c2c(C(=O)c3ccccc3)cnc3cc4c(cc23)OCCO4)cc1`: -0.174; for `Cc1ccccc1C(=O)NC(=S)Nc1sc2c(c1C#N)CCCC2`: active: 5.02.
Under `N#Cc1nc(COc2ccccc2F)oc1NCCCn1ccnc1` stands -0.273; under `COc1cc(C2C(C#N)=C(C)NC3=C2C(=O)CC(C)(C)C3)ccc1O` (stereo unspecified), -0.333; under `O=C(Nc1ccc(Cl)cc1)OCc1cn(-c2ccc(Cl)cc2)nn1`, -0.379.
The same measure for `Cc1ccc(NC(=O)Cn2cccc2)cc1Cl`: 2.51; for `Cc1ccc(S(=O)(=O)Nc2nc(C)c(C(=O)Nc3ccccc3)s2)cc1`: -0.207; for `CC(C)c1cc(C(N)=O)c(NC(=O)c2cccc(COc3ccc(Cl)cc3)c2)s1`: -0.0602.
Compound `O=C(c1ccccc1Oc1ccccc1)N1CCN(c2ccccc2)CC1` gave a z-score of -0.457.
The same measure for `Cc1cccc(/C=C2/S/C(=N/N=C3\CC4CCC3(C)C4(C)C)NC2=O)c1` (stereo unspecified): 0.879; for `CCCOc1ccc(C2NC(=S)NC(C)=C2C(=O)c2ccccc2)cc1OC` (stereo unspecified): -0.572.
As to `O=C(NCCn1ccc2ccccc21)c1ccc(S(=O)(=O)N2CCOCC2)cc1`, the z-score is -0.259.
`Cc1ccc(N2C(=O)c3ccc(C(=O)O)cc3C2=O)cc1C` yielded a z-score of -0.785.
Under `C=C(C)c1cccc(C(C)(C)NC(=O)N2CCN(C)CC2)c1` stands -0.103; under `O=C(OCc1cc2ccccc2[nH]c1=O)C1CCCO1` (stereo unspecified), 0.511; under `CCCc1nnc(NC(=O)NCCN2C(=O)C3C4C=CC(C4)C3C2=O)s1` (stereo unspecified), 0.0137.
`O=C(Nc1ccccc1)Nc1ccc(Br)cc1F` had a z-score of -0.264.
In turn, `O=[N+]([O-])c1cc([N+](=O)[O-])c(N2CCOCC2)cc1NCc1ccccc1` showed a z-score of -1.61.
For the compound `Oc1cccc2ccc[n+](CC(O)Cn3c4ccccc4c4ccccc43)c12` (stereo unspecified), the z-score was -0.428.
Under `NC(=O)c1cc(Br)cc2c3c([nH]c12)CCCC3` stands 0.259; under `COc1ccc(-c2[nH]c(-c3ccc4c(c3)OCO4)nc2-c2ccccc2)cc1`, -0.157; under `C=CCC(C=C)S(=O)(=O)c1ccc(C)cc1` (stereo unspecified), -0.553.
Under `O=C(c1ccc2c(c1)N(Cc1ccccc1)CCS2)N1CCCCC1` stands 0.565.
Under `CC(C)(C)c1nc2scc(-c3ccc(Cl)cc3)c2c(=O)o1` stands 0.0761; under `COCCCN1CN(Cc2ccccc2)CNC1=S`, 0.294.
In turn, `COC(=O)Cc1cc(=O)oc2c(C)c(O)ccc12` returned a z-score of 0.017.
Under `Cc1ccc(C(=O)O)cc1S(=O)(=O)N1CCC(C(=O)O)CC1` stands 0.299.
The same measure for `O=C(O)COc1ccc(NC(=O)c2cccs2)cc1`: 0.137; for `CCSc1nnc(NC(=O)Cc2cccc(OC)c2)s1`: -0.365.
Under `Cc1[nH]c(=O)c(C#N)cc1-c1ccccc1` stands -0.00669.
In the case of `Nn1c(SCC(=O)Nc2ccc(F)cc2F)nnc1-c1cccnc1`, the z-score is -0.228.
The same measure for `O=C1NCCN1Cc1ccccc1`: -0.0214.
As to `CC(C)N(Cc1nc(-c2ccccc2)no1)C(=O)c1ccc2c(c1)OCO2`, the z-score is -0.865.
The same measure for `O=C(c1ccccc1NS(=O)(=O)c1ccc(Br)s1)N1CCCC1`: 0.271; for `C=C(C)Cn1c(-c2ccccc2)nc2ccccc21`: 1.06.
`NS(=O)(=O)c1cccc(NC(=O)COC(=O)CCSc2ccccc2)c1` showed a z-score of 0.0368.
Under `COc1cc(-c2nnc(SCC(=O)N3c4ccccc4Sc4ccccc43)o2)cc(OC)c1OC` stands -0.176; under `NS(=O)(=O)c1ccc(NC(=S)N2CCN(c3ccccc3)CC2)cc1`, 0.13; under `CC(C)NS(=O)(=O)c1ccc(OCC(=O)N(C)Cc2ccccc2)cc1`, -0.378.
Under `CN1CC=C2C(C#N)=C(N)C(C#N)(C#N)[C@H](c3cccc(Cl)c3)C2C1` (stereo partly specified) stands active: -3.11.
The same measure for `CCCCCCN1C=CC(=C/C=C(\C#N)C(=O)OCC)C=C1`: -0.21; for `O=S1(=O)C[C@H]2NC(=S)N(c3ccccc3)[C@H]2C1`: -0.132; for `C=CCc1c(C)nc(SC)nc1Nc1ccccc1`: -0.563.
With `Cc1c(O)nc(SC2CC(=O)N(c3ccccc3)C2=O)[nH]c1=O` (stereo unspecified), the z-score was 0.139.
`CC1CC(C)CN(c2nc3c(c(=O)[nH]c(=O)n3C)n2CCCSc2nc3ccccc3s2)C1` (stereo unspecified): the z-score is -0.467.
Under `O=C(NC(=O)c1ccccc1)OCC1CCCN2CCCCC12` (stereo unspecified) stands -0.0938; under `COc1ccc(-c2cn[nH]c2N)cc1OC`, 0.0393.
`O=C(CN1CCN(S(=O)(=O)c2ccc(F)cc2)CC1)Nc1ccc(Cl)c(C(F)(F)F)c1`: the z-score was -0.132.
Under `COc1ccc(C(c2c(C)[nH]n(C(N)=S)c2=O)C(C#N)C#N)cc1` (stereo unspecified) stands -0.815; under `CNc1nc(-c2c[nH]c3ccccc23)cs1`, -0.116.
Under `Cc1c(N2C(=O)C(=O)/C(=C(/O)c3ccccc3)C2c2ccc(F)cc2)c(=O)n(-c2ccccc2)n1C` (stereo unspecified) stands -0.483; under `COCCn1ccc(O)c(Cc2ccccc2)c1=O`, -0.189; under `Cc1cccc(NC(=S)Nc2c(C)n(C)n(-c3ccccc3)c2=O)c1C`, -0.253.
Under `Cn1c(NC(=O)/C=C/c2ccco2)cc(=O)n(C)c1=O` stands -0.0524; under `CCCNC(=O)c1c(N)n(-c2ccc(S(N)(=O)=O)cc2)c2nc3ccccc3nc12`, -0.0492.
As for `Cc1ccc(Nc2nc(CSc3nnnn3-c3ccccc3)cc(=O)[nH]2)cc1`, the z-score worked out at 0.664.
Under `S=c1[nH]nc(-c2ccccn2)n1/N=C/c1ccc(Br)s1` stands active: 5.6; under `Cn1nnnc1SCC(=O)Nc1ccccc1C(=O)NCc1ccccc1`, 0.00964.
Under `O=C1c2ccccc2C(=O)N1CCSc1nncs1` stands 0.647.
The same measure for `O=c1cc(-c2ccccc2)nc(SCc2ccccc2)[nH]1`: -0.134.
As for `COc1cccc(NC(=O)CN2C(=O)C(c3ccc(C)cc3)=NC23CCCCCC3)c1`, the z-score was 0.565.
`COc1cccc2cc(S(=O)(=O)c3ccccc3)c(=Nc3ccc4c(c3)OCCO4)oc12` returned a z-score of -0.273.
Under `COc1ccc(CN2CCN(S(=O)(=O)c3ccc(C)cc3)CC2)cc1Br` stands -0.163; under `O=C(CSc1nnc(-c2ccc(F)cc2)o1)Nc1ccccc1N1CCOCC1`, -0.906.
`CCc1ccccc1NC(=O)CSc1ccsc1[N+](=O)[O-]` registered a z-score of -0.322.
The same measure for `Cc1ccn(-c2ccc([N+](=O)[O-])cc2)n1`: 0.0346.
The same measure for `COc1ccc(C2c3c(ccc4ccccc34)Oc3ncn4nc(Cc5ccccc5)nc4c32)cc1OC` (stereo unspecified): -0.178; for `COc1ccc(OCC(=O)Nc2ccc(N3CCOCC3)cc2)cc1`: 0.2; for `CCCC(=O)Nc1sc2c(c1C#N)CC(C)(C)NC2(C)C`: -0.129.
Under `CC(=O)c1ccc(OCC(O)CN2CCN(Cc3ccc4c(c3)OCO4)CC2)cc1` (stereo unspecified) stands 0.302.
For `CC1(C)Cc2ccccc2-c2nnc(SCC(=O)N3CCN(c4ccccc4)CC3)n21`, the z-score is active: 3.2.
